{"source": "paper PMC8058401", "about": "“Identification and Characterization of Zika Virus NS5 Methyltransferase Inhibitors” (Frontiers in Cellular and Infection Microbiology, 2021)", "origin": "cited, not measured here", "key": {"NS5 MTase of WNV and YFV": {"biological_target": "NS5 MTase of WNV and YFV", "conditions": "in vitro; ref Brecher et al., 2015; cited from earlier work"}, "WNV, DENV-2 and JEV": {"system": "WNV, DENV-2 and JEV", "conditions": "cell-based assays; ref Brecher et al., 2015; read-out: EC50, antiviral efficacy toward WNV, DENV-2 and JEV; cited from earlier work"}}}
{"smiles": "Cc1cc(N)c2cc(NC(=O)Nc3ccc4nc(C)cc(N)c4c3)ccc2n1", "note": "[NSC 12155]", "values": [{"measurement": "IC50", "setting": "NS5 MTase of WNV and YFV", "value": "500 to 3000", "unit": "nM"}, {"measurement": "EC50", "setting": "WNV, DENV-2 and JEV", "value": "1 to 7", "unit": "µM"}]}
